# Measurements reported in PMC12820563.
# The other results are listed elsewhere or left out. The list includes weakly bound sequences.
# Target: T1, MBP-FoxP3dN (UniProt Q99JB6)
# T1 sequence: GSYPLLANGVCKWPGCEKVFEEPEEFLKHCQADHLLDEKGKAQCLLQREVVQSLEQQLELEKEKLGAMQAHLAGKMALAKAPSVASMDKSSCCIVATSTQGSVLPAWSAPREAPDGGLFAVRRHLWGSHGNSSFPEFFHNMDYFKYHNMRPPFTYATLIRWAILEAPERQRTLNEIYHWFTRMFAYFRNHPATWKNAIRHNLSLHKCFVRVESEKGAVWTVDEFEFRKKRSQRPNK
# Assay: PD-seq (MBP pull-down with sequencing)
# Conditions: 20 mM Tris-HCl pH 7.5, 100 mM NaCl, 1.5 mM MgCl2, 0.4 uM protein, 0.1 uM dsDNA library, 30 min, room temperature, amylose pull-down; high values mean tight binding; double strand, one strand shown
row,Sequence,binding signal (RPM ratio (pull-down/input))
1,GATGATTGTTCTCCCAGCTGATGAATTGGATAAGTCGAGTAAACAAATTTTCCTAATCTTTCTGTTCAAGCGCCATCTAC,0.218
2,GATGATTGTTCTCCCAGCTGATGAATTCGGTGAGTCGAGTAAACAAATTTTCCTAATCTTTCTGTTCAAGCGCCATCTAC,0.558
3,GATGATTGTTCTCCCAGCTGATGAATTCAGTTTATCGAGTAAACAAATTTTCCTAATCTTTCTGTTCAAGCGCCATCTAC,3.68
4,GATGATTGTTCTCCCAGCTGATGAATTAACGCATTCGAGTAAACAAATTTTCCTAATCTTTCTGTTCAAGCGCCATCTAC,6.02
5,GATGATTGTTCTCCCAGCTGATGAATTCCTAGTATCGAGTAAACAAATTTTCCTAATCTTTCTGTTCAAGCGCCATCTAC,0.391
6,GATGATTGTTCTCCCAGCTGATGAATTTGTACTGTCGAGTAAACAAATTTTCCTAATCTTTCTGTTCAAGCGCCATCTAC,3.11
7,GATGATTGTTCTCCCAGCTGATGAATTGACTTCCTCGAGTAAACAAATTTTCCTAATCTTTCTGTTCAAGCGCCATCTAC,0.331
8,GATGATTGTTCTCCCAGCTGATGAATTTGCACTATCGAGTAAACAAATTTTCCTAATCTTTCTGTTCAAGCGCCATCTAC,0.894
9,GATGATTGTTCTCCCAGCTGATGAATTCTTTACGTCGAGTAAACAAATTTTCCTAATCTTTCTGTTCAAGCGCCATCTAC,0.372
10,GATGATTGTTCTCCCAGCTGATGAATTAACCAACTCGAGTAAACAAATTTTCCTAATCTTTCTGTTCAAGCGCCATCTAC,0.312
11,GATGATTGTTCTCCCAGCTGATGAATTCGTAGATTCGAGTAAACAAATTTTCCTAATCTTTCTGTTCAAGCGCCATCTAC,0.424
12,GATGATTGTTCTCCCAGCTGATGAATTCTAGAGTTCGAGTAAACAAATTTTCCTAATCTTTCTGTTCAAGCGCCATCTAC,0.389
13,GATGATTGTTCTCCCAGCTGATGAATTTACGCCCTCGAGTAAACAAATTTTCCTAATCTTTCTGTTCAAGCGCCATCTAC,0.837
14,GATGATTGTTCTCCCAGCTGATGAATTCCGGTTATCGAGTAAACAAATTTTCCTAATCTTTCTGTTCAAGCGCCATCTAC,0.841
15,GATGATTGTTCTCCCAGCTGATGAATTATGTGTATCGAGTAAACAAATTTTCCTAATCTTTCTGTTCAAGCGCCATCTAC,5.73
16,GATGATTGTTCTCCCAGCTGATGAATTACTGCTGTCGAGTAAACAAATTTTCCTAATCTTTCTGTTCAAGCGCCATCTAC,0.446
17,GATGATTGTTCTCCCAGCTGATGAATTTTTCCGTTCGAGTAAACAAATTTTCCTAATCTTTCTGTTCAAGCGCCATCTAC,0.238
18,GATGATTGTTCTCCCAGCTGATGAATTTTCCTAGTCGAGTAAACAAATTTTCCTAATCTTTCTGTTCAAGCGCCATCTAC,0.184
